Experimental data from PubChem BioAssay AID1963576 (National Center for Advancing Translational Sciences (NCATS), 2024).
Among all 46,000 compounds or so, about 60 (0.1%) were called active. About 3% were inconclusive and are not listed. The call rests on the fitted dose curve; in most records, active means well fitted inhibition curve with a large enough effect; inconclusive means small, poorly fitted or top-dose-only effect; inactive means no such curve, though single readings can be large or run the other way. This is one part of the list.

Test: Primary qHTS assay for Inhibitors of ovarian cancer metastasis using an organotypic tumor microenvironment (TME) model. Further: nearly all actives have a fitted effect of over 65% in size.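 On activity change, negative = inhibition: plate controls were DMSO wells for no effect and tomatine positive control wells for full effect.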
Settings: SKOV3ip1-GFP adhesion/invasion on 3D omental model, fluorescence; series mostly up to 45.8 µM; activity change, negative = inhibition: at the top concentration
Outline: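 A 3D layer of primary human omental fibroblasts, mesothelial cells, fibronectin and collagen I, grown 48 hr, received SKOV3ip1-GFP cells in serum-free medium plus compounds at 0.36-46 umol/L. After 2 hr RT and 16 hr 37 C, fixed adherent GFP cells were counted; normalized to DMSO and tomatine.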

Activity change, negative = inhibition, inactive:
O=C(Nc1ccc2nn(-c3ccc(Cl)cc3)nc2c1)c1cc2ccccc2o1 -1.69%, CCc1cccc(C)c1NS(=O)(=O)c1ccc(-c2cc(C)no2)s1 -6.71%, COc1ccc(-c2cccc(NS(=O)(=O)c3cc(C)ccc3OC)c2)nn1 -11.2%, Cc1cccc(NC(=O)c2c(N)sc3c2CCC(C)C3)c1 (stereo not given) 19.7%, COc1ccc(-c2nc3cc(NC(=O)c4cc5ccccc5o4)ccc3o2)cc1 2.1%, CCOC(=O)c1cc(-c2ccccc2)n(CCC(=O)NCCc2ccc(OC)c(OC)c2)c1C -2.33%, Cn1c(=O)n(C)c2cc(N3CCCCC3)c(NC(=O)c3c(F)cccc3F)cc21 -27.4%, COc1ccc(N(C)C(=O)C2CCN(S(=O)(=O)c3cc(Br)cc4c3N(C(C)=O)CC4)CC2)cc1 -1.76%, Cc1ccc(NCc2cccn2-c2nnc(N3CCC(C(=O)NCc4ccc(F)cc4)CC3)s2)cc1 -24.9%, CCn1ccc2cc(S(=O)(=O)N3CCC(C(=O)NCc4ccc(F)cc4)CC3)ccc21 -9.54%, O=C(Nc1ccc2nc(SCC(=O)N3CCOCC3)sc2c1)c1ccccc1Cl -5.37%, Cc1ccc(NC(=O)CSc2nnc(COc3ccc(Cl)cc3)o2)c(C)c1 -2.82%, Cc1ccn2c(Nc3ccccc3C)c(-c3ccccc3)nc2c1 -11.3%, CN(C)c1ccc(CNC(=O)c2sc3ncccc3c2-n2cccc2)cc1 3.72%, CN(C)c1ccc(C(=O)NCc2ccc3c(c2)CCN3C(=O)c2ccccc2)cc1 -8.98%, CC(C)CCNC(=O)CSc1nc2ccccc2nc1Cc1ccc(Cl)cc1 8.87%, CSc1ccc(CNC(=O)Cn2ccc3cc(S(=O)(=O)N4CCCC4)ccc32)cc1 -22.1%, Cc1cc(C)c(NC(=O)CN2C(=O)CCSc3ccc(S(=O)(=O)N4CCCC4)cc32)c(C)c1 7.3%, COCCn1c(C)cc(O)c(C(c2ccc(Cl)cc2)N2CCCCC2)c1=O (stereo not given) -0.949%, CCN(c1ncnc2c1cnn2-c1cccc(Cl)c1)C1CCCCC1 3.29%, Cc1ccc(-c2cc(C(F)(F)F)c(C#N)c(SCC(=O)Nc3ccccc3F)n2)cc1 2.02%, Cc1cccc(N2CCN(C(=O)c3nn(C)c4c3CS(=O)(=O)c3ccccc3-4)CC2C)c1 (stereo not given) 11.8%, Cc1ccc(-n2c(=O)c3ccccc3n(CC(=O)Nc3cccc(C(F)(F)F)c3)c2=O)cc1 -7.77%, O=C(Nc1ccc2nc(SCC(=O)N3CCOCC3)sc2c1)c1ccc(Cl)cc1 4.15%, O=C(c1ccccc1)N1CCCCC1CCN1CCCCC1 (stereo not given) 21.8%, CCN(Cc1ccccc1)C(=O)C(CC(C)C)NS(=O)(=O)c1ccc2c(c1)CCN2C(C)=O (stereo not given) 1.88%, O=C(CN1C(=O)CC(c2ccc(F)cc2)=Nc2ccccc21)NCc1ccccc1Cl -13%, CN(C1CCCCC1)S(=O)(=O)c1ccc2c(c1)c(=O)c(C(=O)NCc1ccc(Cl)cc1)cn2C -6.93%, Cc1ccc(C)c(Nc2nn3c(=O)c4ccc(C(=O)NCc5cccs5)cc4nc3s2)c1 -9.2%, COc1cccc(N2CCN(c3ncnc4onc(-c5ccc(Cl)cc5)c34)CC2)c1 -7.9%, N#C/C(=C\c1ccc(Cl)cc1)c1nc(-c2cc3c(ccc4ccccc43)oc2=O)cs1 3.36%, CCOc1ccc(NC(=O)CN(C)S(=O)(=O)c2cnc[nH]2)cc1 0.444%, O=C(CSc1nnc2[nH]c(=O)cc(-c3ccccc3)n12)Nc1cc(C(F)(F)F)ccc1Cl -1.63%, Cc1ccc2c(c1)N(C(=O)Nc1cccc3c1CCCC3)CC(C)O2 (stereo not given) 33.6%, Brc1ccc2nc(SCCOc3ccccc3)[nH]c2c1 8.48%, Cc1ccc2oc(-c3cc(NC(=O)/C=C/c4ccco4)ccc3Cl)nc2c1 -3.18%, COc1cc2c(cc1OC)C(COc1ccc3c(C)cc(=O)oc3c1)N(C(=O)CC(C)C)CC2 (stereo not given) -0.911%, CC(=O)Nc1nonc1-c1nc2ccccc2n1Cc1ccccc1Br -3.1%, COc1ccccc1NC(=O)c1cc(S(=O)(=O)NCCC2=CCCCC2)ccc1F 10.7%, CCOc1ccc(NC(=O)c2c(NC(=O)c3cccs3)sc3c2CCC(C(C)(C)C)C3)cc1 (stereo not given) -0.735%, CCn1c(=O)cc(SCC(=O)N2CCN(c3ccccc3F)CC2)c2ccccc21 1.36%, O=C(NCc1cccc(Cl)c1)C1CCCN(c2ncnc3onc(-c4ccc(F)cc4)c23)C1 (stereo not given) 3.48%, CN1CCN(C(CNC(=O)c2ccccc2)c2ccc3c(c2)OCO3)CC1 (stereo not given) 1.1%, Cc1cccc(Cn2nnc3c(=O)[nH]c(C4CCN(C(=O)c5ccc(F)cc5)CC4)nc32)c1 -11.9%, CCOC(=O)c1noc2nc(C)n(Cc3ccc([N+](=O)[O-])cc3)c(=O)c12 -2.77%, Cc1ccccc1CN1CCCN(CC(=O)Nc2ccc3c(c2)OCCO3)S1(=O)=O 3.29%, COC(=O)c1cc(NC(=O)c2ccc(-c3ccc(Cl)cc3Cl)o2)cc(C(=O)OC)c1 0.209%, CNC(=O)c1ccc(CSc2nc3ccncc3n2Cc2ccc(C)cc2)cc1 7.23%, COc1cc(Cl)c(C)cc1NC(=O)c1cnc2c(-c3cccc(C)c3)c(C)nn2c1C -1%, Cc1ccsc1CN1CCc2nc(N3CCN(c4ccccc4F)CC3)ncc2C1 1.87%, Cc1cc(C)cc(N2CCn3c2nc2c3c(=O)n(CCCc3ccccc3)c(=O)n2C)c1 -1.14%, COCc1cc(C)nc2sc(C(=O)Nc3cc(C)ccc3F)c(N)c12 -4.44%, COCCCNC(=O)C1CCCN(c2nn3cc(-c4ccc(C)cc4)nc3s2)C1 (stereo not given) 18.4%, Cc1ccc(-c2nc3cc(C(C)C)ccc3o2)cc1NC(=O)c1cc([N+](=O)[O-])ccc1N1CCOCC1 -17.7%, Cc1ccc(CNC(=O)CCC(=O)N2CCSc3ccccc32)cc1 9.54%, Cc1ccc(CNC(=O)CCCn2c(=O)c3ccccc3n(Cc3ccc(Cl)cc3)c2=O)cc1 -2.6%, CN(C(=O)CSc1nnc(-c2ccc([N+](=O)[O-])cc2)o1)c1ccccc1 0.319%, O=C(Nc1ccc(F)c(Cl)c1)N1CCC(CN2CCc3ccccc3C2)CC1 -3.94%, Cc1cccc(-c2nc3ccccc3n3c(-c4ccccc4)c4c(=O)n(C)c(=O)n(C)c4c23)c1 -3.47%, O=c1cc(N2CCOCC2)oc2c(-c3cccc4c3sc3ccccc34)cccc12 -28.9%, CCc1ccc(NC(=O)Cn2cnc3sc(C)c(S(=O)(=O)N4CCN(c5ccccc5OC)CC4)c3c2=O)cc1 -4.06%, COc1ccccc1-c1cc2nc(C)c(CCC(=O)Nc3cc(C)ccc3C)c(C)n2n1 7.77%, O=C(CSc1nc2c(c(=O)[nH]1)CN(Cc1ccc3c(c1)OCO3)CC2)Nc1ccc(F)c(F)c1 -5.97%, CCOC(=O)c1cnc2ccc(Cl)cc2c1Nc1ccc(N2CCOCC2)cc1 14.9%, O=C(Nc1ccc(C(=O)N2CCN(c3ccccc3)CC2)cc1)c1nsc2ccccc12 -9%, COC(=O)c1ccccc1-n1cc2c(c1-c1cccc(C)c1)c(=O)n(C)c(=O)n2C 5.11%, COc1ccc(-n2nnc(-c3nc(-c4cccs4)no3)c2N)cc1 -0.0448%, CC(C)(C)OC(=O)N1CCC(c2c(C(=O)N3CCOCC3)cnn2-c2cccc(F)c2)CC1 -0.689%

outcome, inactive:
Cc1ccc(OCc2cc(=O)n3ccsc3n2)c(NC(=O)c2ccco2)c1, Cc1cccc(OCC(=O)Nc2ccccc2OCc2cc(=O)n3cc(C)ccc3n2)c1, COc1cccc(NC(=O)Cn2c(=O)n(Cc3ccco3)c(=O)c3cc(OC)c(OC)cc32)c1, O=C(Cn1c(=O)n2nc(-c3cccc(F)c3)nc2c2ccccc21)NCc1ccc(Cl)cc1, Cc1cc(C)cc(NC(=O)CCN2C(=O)c3ccccc3Sc3ncccc32)c1, CC1CCN(c2nc(-c3ccc(Br)cc3)nc3ccccc23)CC1, COc1ccccc1CNC(=O)CS(=O)(=O)Cc1nc(-c2ccccc2C)oc1C, COc1ccc(C2C(=O)N(C3CCCCC3)CC(=O)N2C2CCCCC2)cc1 (stereo not given), COc1cccc(CNC(=O)CN2C(=O)CSc3ccc(S(=O)(=O)N4CCCC4)cc32)c1, COc1cc(Cl)c(NS(=O)(=O)c2ccc(-c3coc(C)n3)cc2)c(OC)c1, O=C(Cn1c(=O)n(-c2ccccc2)c(=O)c2sc3ccccc3c21)NC1CCCC1, COc1ccc(NC(=O)NC(C)c2c(-n3cccc3)sc3c2CCN(C)C3)c(OC)c1 (stereo not given), Nc1c(C(=O)Nc2cccc(C(F)(F)F)c2)c2ccccn2c1C(=O)c1ccccc1, COc1ccc(NC(=O)CCc2c(C)nc3c(-c4ccc(F)cc4)c(C)nn3c2C)c(OC)c1, O=C(Nc1ccc(C(F)(F)F)cc1)N1CCC(N2CCCCC2)CC1, CCc1ccc(NC(=O)N2CCN(C(=O)c3nsc4ccccc34)CC2)cc1, CNC(=O)C1CCN(c2nc3ccccc3nc2C(F)(F)F)CC1, COc1cccc(CNC(=O)Cn2c(C)c3cnn(-c4ccccc4)c(=O)c3c2C)c1, CCOc1ccc(OCC)c(Nc2nc3ccc(Cl)cc3n3cnnc23)c1, CC(C)CN(CCNC(=O)c1cc(-c2ccc(Cl)s2)nc2ccccc12)CC(C)C, CCCN(C(=O)Cn1cc(S(=O)(=O)N2CCN(c3ccccc3F)CC2)c2ccccc2c1=O)c1cccc(C)c1, CC(C)(C)C(=O)Cn1c(=O)n(-c2ccc(Cl)c(Cl)c2)c(=O)c2c3c(sc21)CCCC3, COc1ccc(CCNC(=O)Cn2cc(C(=O)c3ccc(F)cc3)c(=O)c3ccc(C)nc32)cc1OC, CCc1cccc(NC(=O)c2ccc(CNS(=O)(=O)c3ccc4c(c3)C(C)(C)C(=O)N4C)cc2)c1, Cc1ccc(-n2ncc3c(NCC(C)C)ncnc32)c(C)c1, Cc1cccc(CCNC(=O)C2CCN(c3nc4ccccc4nc3C(F)(F)F)CC2)c1, Cc1ccc(C)c(NC(=O)Nc2cccc(-c3cn4cccnc4n3)c2)c1
